Here are results for one molecule from US11707511B2, “Vaccine compositions and methods of using the same” (The Board of Supervisors of Louisiana State University and …, priority 2017, dated 2023).

Entries after “also recorded” stand apart in the source; their conditions may differ.

For assay [1], the system named is C. auris AR-0386. The assay can be described thus: Passive transfer of mAbs or two mAbs in combination in A/J mouse model of invasive C. auris infection. It counts as in vivo, Candida auris. The procedure:
A. Complement protein C5-defecient A/J mice were treated with one of the five mAb or with DPBS as a vehicle control. The following day, mice were challenged with 1×10^8 C. auris cells/100 ul DPBS dose per mouse. […] B. Fungal burdens in the kidneys (top), heard (center), and brain (bottom).
Identified protective mAbs were obtained by use of standard hybridoma technique and purified by use of protein A/G. A/J mice were given an i.p. dose of either single mAb or two mAbs in combination 24 hours before hematogensous challenge with a lethal dose (2×108) of C. auris AR-0386 live cells. Mice received either 9G2F5 alone or 6H1G8 alone or 9F2G5 and 3H7E3 in combination had 40% survival rate respectively, with prolonged survival as compared to control animals that received DPBS buffer control.
Evaluation and validation of a panel of peptide-specific monoclonal antibodies (mAbs) as a passive immunization strategy protect against invasive C. auris infection in established A/J mouse model of human disease.
The monoclonal antibodies used in this experiment were: • 6H1G8 (IgG2b), α-Hwp1 (Hyphal wall protein) • 3E2G2 (IgG2b), α-Fba (Fructose bisphosphate aldolase) • 10E7E2 (IgG1), α-GPV-P3 (General peptide vaccine 3 from Phosphoglycerate kinase) • 9F2G5 (IgG2a), α-Pgk1 (Phosphoglycerate kinase) • 3H7E3 (IgG1), α-Met6 (Methyltetrahydropteroyltriglutamate)

Assay [2] has as its system C. auris. The assay can be described thus: mAb 9F2G5 alone or with antifungal drug in A/J mice with C. auris disseminated candidiasis. It counts as in vivo, Candida auris. The conditions noted are these: FIG. 18. The protocol:
Method and Material to determine if mAb 9F2G5 (α-Pgk1, IgG2a) can increase antifungal efficacy in A/J mice.
Experimental Groups (Three Mice/Group): • 1. DPBS • 2. Micafungin (0.25 mg/kg/day) • 3. Micafungin (0.5 mg/kg/day) • 4. Micafungin (1.0 mg/kg/day) • 5. 9F2G5 • 6. 9F2G5+Micafungin (0.25 mg/kg/day) • 7. 9F2G5+Micafungin (0.5 mg/kg/day) • 8. 9F2G5+Micafungin (1.0 mg/kg/day) • 9. Fluconazole (25 mg/kg/day) • 10. 9F2G5+Fluconazole (25 mg/kg/day)
Referring to FIG. 18, mAb 9F2G5 used alone or with antifungal drug has therapeutic activity against C. auris disseminated candidiasis.

B1: 9F2G5: mAb 9F2G5 (IgG2a), α-Pgk1 (Phosphoglycerate kinase) peptide (antibody)
heavy: EVHLQQSGPELVKPGASVKISCKTSGYIFTEYTMHWVKQSHGKSLEWIGGINPNNGGTRYNQKFKGKATLTVDKSSSTAYMELRSLTSEDSAVYYCAWYFPYWGQGTLVTVSAAKTTAPSVYPLAPVCGDTTGSSVTLGCLVKGYFPEPVTLTWNSGSLSSGVHTFPAVLQSDLYTLSSSVTVTSSTWPSQSITCNVAHPASSTKVDKKIEPRGPTIKPCPPCKCPAPNLLGGPSVFIFPPKIKDVLMISLSPIVTCVVVDVSEDDPDVQISWFVNNVEVHTAQTQTHREDYNSTLRVVSALPIQHQDWMSGKEFKCKVNNKDLPAPIERTISKPKGSVRAPQVYVLPPPEEEMTKKQVTLTCMVTDFMPEDIYVEWTNNGKTELNYKNTEPVLDSDGSYFMYSKLRVEKKNWVERNSYSCSVVHEGLHNHHTTKSFSRTPGK
light: [gap - about 200 residues]
Take B1: in assay [1] (A/J mouse model, in words), the “fungal burdens in targeted organs” value is recorded as “lowest fungal burdens in all organs; also recorded: able to almost clear fungal burden” and the “protection against C. auris invasive infection” value is on record as “protect against C. auris invasive infection; also recorded: best protection”. Moreover, the survival in assay [1] (FIG. 15A, A/J mice, 1×10^8 C. auris cells, experiment terminated 40 days post challenge) was 50%. The “fungal burden in the heart and brain” value in assay [1] (FIG. 15B, several mice) is given as “non-detectible levels of fungal burden”. The survival rate in assay [1] (FIG. 16, A/J mice, mAb(s) i.p. 24 hours before lethal dose (2×108) of C. auris AR-0386) came out at 40%. Further, in assay [2] (A/J mice), the “protection as compared to Micafungin alone” value is on record as “improved immunoprotection; also recorded: better protection”. For the same molecule, in assay [2] (day 4 post-infection, 9F2G5 i.p. 24 hours before challenge, Micafungin i.p. 24 h post-infection), the “fungal burdens (CFUs) in kidney and heart compared to Micafungin alone” value is “reduced fungal burdens”.
